Assay results taken from PubChem BioAssay AID624255 (Broad Institute, 2012).
About 4,600 (6%) of roughly 77,000 compounds were called active. This list was built around the results that the source calls inconclusive (neither active nor inactive); the mix of calls is not that of the screen.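 Rule for the calls: active = mean inhibition above about 93%, with at least 55% of replicates each passing it (limit read from the data, passing the limit was not always enough); inconclusive = only one of those two conditions holds; inactive = neither condition holds.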

Assay: T. cruzi intracellular proliferation inhibitors, primary screen, cell-based, beta-gal Tulahuen parasites, NIH3T3 host, luminescence (AID 624255)
Conditions: T. cruzi beta-gal in NIH3T3, GalScreen luminescence, 90 h; at 8.34 µM; active compounds read high

Structure (SMILES) | inhibition
COc1ccc(S(=O)(=O)N2C[C@H](O)COC[C@H]3O[C@H](CC(=O)NCc4ccc(Cl)c(Cl)c4)CC[C@@H]32)cc1 | inconclusive: 111%
COc1ccccc1C#Cc1ccc2c(c1)[C@H]1[C@H](CCN1C(=O)c1cccc(F)c1)[C@H](CO)N2 | inconclusive: 88.8%
COCC(=O)N1C[C@@H](C)[C@H](OC)CN(C)C(=O)c2cc(NC(=O)c3ccc(F)cc3)ccc2OC[C@H]1C | inactive: 10.3%
CCCNC(=O)N1[C@@H](CO)[C@H](c2ccccc2)[C@@H]1CNC(=O)c1ccccc1 | inconclusive: 96.8%
COc1ccccc1-c1ccc2c(c1)O[C@@H](CN(C)S(=O)(=O)c1ccccc1)[C@H](C)CN([C@H](C)CO)S2(=O)=O | inconclusive: 99.4%
C[C@@H]1CCCCO[C@H](CN(C)S(=O)(=O)c2ccccc2)[C@H](C)CN([C@@H](C)CO)C(=O)c2cc(NS(=O)(=O)c3cccs3)ccc2O1 | inconclusive: 95.6%
C[C@@H]1CN([C@H](C)CO)C(=O)c2cc(NS(=O)(=O)c3ccc(F)cc3)ccc2O[C@@H](C)CCCCO[C@H]1CN(C)C(=O)C1CCCCC1 | inconclusive: 102%
CO[C@H]1CN(C)C(=O)c2cc(NS(C)(=O)=O)ccc2OC[C@@H](C)N(C(=O)C2CCCCC2)C[C@@H]1C | inactive: 28.8%
O=S(=O)(Cc1ccccc1)N1CCCCN2[C@H](CO)[C@@H](c3ccc(-c4ccccc4)cc3)[C@H]2C1 | active: 112%
C[C@H](CO)N1C[C@H](C)[C@H](CN(C)C(=O)Nc2ccccc2)Oc2ccc(NC(=O)CCC(F)(F)F)cc2C1=O | inactive: 32.2%
C[C@@H]1CN([C@H](C)CO)C(=O)c2cc(NC(=O)CCCN(C)C)ccc2O[C@@H](C)CCCCO[C@@H]1CN(C)S(=O)(=O)c1ccc(F)cc1 | inactive: -30.5%
Cc1ccc(S(=O)(=O)Nc2ccc3c(c2)C(=O)N([C@@H](C)CO)C[C@@H](C)[C@@H](CN(C)S(=O)(=O)c2ccccc2)OCCCC[C@H](C)O3)cc1 | active: 97.4%
CC(C)C#Cc1ccc2c(c1)O[C@H](CN(C)C(=O)c1cccnc1)[C@@H](C)CN([C@@H](C)CO)S2(=O)=O | inactive: 73.3%
C[C@@H]1CN([C@H](C)CO)C(=O)Cc2cc(NC(=O)Nc3ccc4c(c3)OCO4)ccc2O[C@H]1CN(C)Cc1ccc(Oc2ccccc2)cc1 | inconclusive: 96%
COc1ccc(NC(=O)Nc2ccc3c(c2)C(=O)N([C@H](C)CO)C[C@H](C)[C@@H](CN(C)S(=O)(=O)c2ccc(F)cc2)OCCCC[C@H](C)O3)cc1 | active: 113%
C[C@H]1CN([C@@H](C)CO)S(=O)(=O)c2ccc(C3=CCCCC3)cc2O[C@H]1CN(C)Cc1cncnc1 | inactive: 77.8%
Cc1noc(C)c1NC(=O)Nc1ccc2c(c1)C(=O)N([C@H](C)CO)C[C@@H](C)[C@H](CN(C)Cc1ccc(C(F)(F)F)cc1)OCCCC[C@H](C)O2 | inconclusive: 100%
N#C[C@H]1[C@H](c2ccc(C#Cc3ccc(F)cc3)cc2)[C@H](CO)N1C(=O)Cc1ccncc1 | inconclusive: 95.7%

Structure (SMILES) | inhibition
C[C@H](CO)N1C[C@H](C)[C@@H](CN(C)Cc2ccc(-c3ccccc3)cc2)Oc2ccc(NC(=O)Nc3ccc(C(F)(F)F)cc3)cc2C1=O | inconclusive: 47%
C[C@H]1CN([C@@H](C)CO)C(=O)c2cccc(NS(=O)(=O)c3ccc(F)cc3)c2O[C@@H]1CN(C)S(=O)(=O)c1ccccc1 | inactive: 25.9%
CO[C@H]1CN(C)C(=O)c2ccc(NC(C)=O)cc2OC[C@H](C)N(C(=O)C2CCCCC2)C[C@@H]1C | inactive: -2.83%
O=C(Nc1cccc(F)c1)N1CCCCN2[C@H](CO)[C@H](c3ccc(C#CC4CC4)cc3)[C@H]2C1 | active: 102%
CC(C)NC(=O)N(C)C[C@H]1Oc2c(NC(=O)Nc3ccc(C(F)(F)F)cc3)cccc2C(=O)N([C@@H](C)CO)C[C@@H]1C | inconclusive: 98.7%
COc1cccc(S(=O)(=O)Nc2ccc3c(c2)[C@H]2C[C@H](CC(=O)NCc4cccc(F)c4)O[C@@H](CO)[C@H]2O3)c1 | inconclusive: 96.3%
C[C@H]1CCCCO[C@@H](CN(C)C(=O)Nc2ccccc2)[C@@H](C)CN([C@@H](C)CO)C(=O)c2cc(NC(=O)Nc3ccccc3)ccc2O1 | inconclusive: 96%
C[C@@H]1CCCCO[C@H](CN(C)S(=O)(=O)c2ccc(Cl)cc2)[C@@H](C)CN([C@@H](C)CO)C(=O)c2cc(NC(=O)Nc3ccc(C(F)(F)F)cc3)ccc2O1 | inconclusive: 95.6%
C[C@H]1CCCCO[C@@H](CN(C)C(=O)C2CCCCC2)[C@@H](C)CN([C@@H](C)CO)C(=O)c2cc(NC(=O)Nc3ccc(F)cc3)ccc2O1 | inconclusive: 95.8%
O=C(Nc1ccc2c(c1)[C@@H]1C[C@H](CC(=O)N3CCOCC3)O[C@H](CO)[C@@H]1O2)c1ccc2c(c1)OCO2 | inactive: 52.5%
O=C(C1CCC1)N1CCCCN2[C@@H](CO)[C@@H](c3ccc(-c4ccncc4)cc3)[C@@H]2C1 | active: 109%
C[C@H]1CCCCO[C@H](CN(C)Cc2ccc3c(c2)OCO3)[C@@H](C)CN([C@@H](C)CO)C(=O)c2cc(NS(=O)(=O)c3ccc(Cl)cc3)ccc2O1 | inconclusive: 96.8%
C[C@@H]1CN([C@@H](C)CO)S(=O)(=O)c2ccc(C#CC3CC3)cc2O[C@H]1CN(C)C(=O)C1CCCCC1 | inconclusive: 116%
COc1ccc(S(=O)(=O)Nc2ccc3c(c2)C(=O)N([C@@H](C)CO)C[C@H](C)[C@@H](CN(C)S(=O)(=O)c2ccc(OC)cc2)OCCCC[C@@H](C)O3)cc1 | inconclusive: 91%
COc1ccc(NC(=O)Nc2ccc3c(c2)C(=O)N([C@H](C)CO)C[C@H](C)[C@H](CN(C)Cc2ccc(-c4ccccc4)cc2)O3)cc1 | inconclusive: 94%
N#C[C@@H]1N[C@@H](CO)[C@H]1c1ccc(C#CC2CCCC2)cc1 | inconclusive: 95%
O=C(NCC1CC1)[C@H]1[C@H](CO)[C@H]2Cn3c(ccc(-c4ccccc4)c3=O)[C@H]2N1Cc1cocn1 | active: 97.6%
